Measured values taken from PubChem BioAssay (NCI).
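A five-concentration, 48-hour dose response in 96-well plates underlies each endpoint, interpolated linearly between surrounding concentrations. At the GI50, growth is halved. The concentration for full growth arrest is given as TGI.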

System: NCI-H322M lung
Experiment: DTP human tumour cell line panel, 48 h

**Q.** How did the TGI turn out when `O=Cc1ccc(-c2cccc([N+](=O)[O-])c2)s1` was run?
**A.** > 100 µM

**Q.** With `CCOC(=O)C#Cc1c(CC(=O)OCC)nnn1[C@H]1O[C@@H](CO)[C@@H]2OC(C)(C)O[C@@H]21` as the compound, how does the GI50 read?
**A.** 17 µM

**Q.** What about the TGI of the same compound?
**A.** 34.5 µM

**Q.** `CN(C)CCCNc1ccc2nnn3c4ccc(OC(=O)c5ccc([N+](=O)[O-])cc5)cc4c(=O)c1c23` was tested. Which TGI did it give?
**A.** 20.4 µM

**Q.** How did the TGI turn out when `CC(C)CCCC(C)[C@H]1CC[C@H]2[C@@H]3CC[C@H]4C[C@@H](CCC=C(c5cc(Cl)c(O)c(C(=O)O)c5)c5cc(Cl)c(O)c(C(=O)O)c5)CC[C@]4(C)[C@H]3CC[C@]12C` (stereo partly specified) (tested in a mixture with another compound) was run?
**A.** > 50 µM

**Q.** For `N#Cc1nc2cc(F)c(F)cc2nc1-c1ccc(Cl)cc1`, which GI50 is on record?
**A.** 16.4 µM

**Q.** And the TGI?
**A.** 39.3 µM

**Q.** For `COC(=O)c1cc2oc(/C=C3\SC(=S)N(NC(C)=O)C3=O)cc2n1Cc1ccccc1`, which GI50 is on record?
**A.** 7.74 µM

**Q.** And the TGI?
**A.** 23.2 µM

**Q.** How did the GI50 turn out when `CN1CCn2c(c(Sc3ccc(C(=O)NO)cc3)c3ccccc32)C1=O` was run?
**A.** 2.68 µM

**Q.** What about the TGI of the same compound?
**A.** 7.97 µM

**Q.** Which TGI does the source give for `Oc1c(N=Nc2ccccc2)c2ccccc2c2ccc3ccccc3c12` here?
**A.** > 100 µM

**Q.** Which results are given for `CC(C)C[C@@H]1NC(=O)[C@@H]2CCCN2C(=O)[C@@H]2CCCN2C(=O)[C@H](CC(C)C)NC(=O)[C@H](CO)NC(=O)[C@H](CCCCN)NC(=O)[C@H]([C@H](C)O)NC(=O)[C@@H]2CCCC[C@@H](NC1=O)C(=O)N[C@@H](Cc1ccccc1)C(=O)N1CCC[C@H]1C(=O)N[C@@H](CC(=O)O)C(=O)NCC(=O)N[C@@H](CCCN=C(N)N)C(=O)N2`?
**A.** GI50: > 50 µM; TGI: > 50 µM

**Q.** How did the GI50 turn out when `COc1cc(/C=C/C(=O)c2c(C)n([O-])c3ccc(Cl)cc3[n+]2=O)cc(OC)c1OC` was run?
**A.** 82.8 µM

**Q.** And the TGI?
**A.** > 100 µM

**Q.** With `CC1CC(C)(O)CC(C(O)CC2CC(=O)NC(=O)C2)C1=O` (stereo unspecified) as the compound, how does the TGI read?
**A.** 2.1 µM

**Q.** With `CCOC(=O)/C=C/c1c[nH]c(C(=O)OCC)c1` as the compound, how does the TGI read?
**A.** > 100 µM

**Q.** Which GI50 does the source give for `OC(CNC1CCCC1)Cn1c2ccccc2c2ccccc21` (stereo unspecified) here?
**A.** 97.3 µM

**Q.** What about the TGI of the same compound?
**A.** > 100 µM

**Q.** How did the TGI turn out when `CC(C)(C)c1cc(C(=O)/C=C/c2ccc3c(c2)CCO3)cc(C(C)(C)C)c1O` was run?
**A.** > 100 µM

**Q.** Which TGI does the source give for `CCOC1C=CCCO1` (stereo unspecified) here?
**A.** > 100 µM

**Q.** Which TGI does the source give for `CC(C)CCc1c(Cl)nc(Cl)nc1Cl` here?
**A.** 31.4 µM

**Q.** With `Cc1cccc2c1C/C(=C1\CCc3c(C)cccc31)C2=O` as the compound, how does the TGI read?
**A.** > 100 µM

**Q.** For `NC(CCSC(F)F)C(=O)O` (stereo unspecified), which TGI is on record?
**A.** > 100 µM

**Q.** With `COc1cccc(C[C@H]2COC(=O)[C@]2(O)Cc2cccc(OC)c2)c1` as the compound, how does the TGI read?
**A.** > 100 µM
